Experimental data published in the antibiotic and cytotoxicity screens of Wong et al. (2023).
This is one part of the list.

Key:
HSkMC = human skeletal muscle cells; assay: cytotoxicity call (relative viability < 0.9); details: 10 µM
HepG2 = assay: cytotoxicity call (relative viability < 0.9); details: 10 µM
S. aureus RN4220 = assay: growth inhibition call (relative growth <= 0.2); details: 50 µM

SMILES	cytotoxicity call (HSkMC)	cytotoxicity call (HepG2)	growth inhibition call (S. aureus RN4220)
C[C@@H]1CN([C@@H](C)CO)C(=O)c2cc(NC(=O)CCCN(C)C)ccc2O[C@@H]1CN(C)S(=O)(=O)c1cccs1	inactive	inactive	inactive
C[C@H](CO)N1C[C@H](C)[C@@H](CN(C)Cc2ccncc2)Oc2ccc(NC(=O)c3ccncc3)cc2C1=O	inactive	inactive	inactive
C[C@H]1CN([C@@H](C)CO)C(=O)c2cccc(NC(=O)C3CCCCC3)c2O[C@@H]1CN(C)Cc1ccc(Cl)c(Cl)c1	inactive	active	inactive
CO[C@@H](CN(C)C(=O)c1ccc2c(c1)OCO2)[C@@H](C)CN([C@H](C)CO)S(=O)(=O)c1ccc(F)cc1	inactive	inactive	inactive
Cc1nn(C[C@@H](O)Cn2cnc3c2c(=O)n(C)c(=O)n3C)c(C)c1Br	inactive	inactive	inactive
C[C@@H]1CN([C@H](C)CO)C(=O)Cc2cc(NS(=O)(=O)c3ccccc3)ccc2O[C@@H]1CN(C)Cc1ccc(C(=O)O)cc1	inactive	inactive	inactive
C[C@@H]1CN([C@@H](C)CO)C(=O)c2cc(NS(=O)(=O)c3ccc(F)cc3)ccc2O[C@@H](C)CCCCO[C@@H]1CN(C)C(=O)Nc1ccc2c(c1)OCO2	inactive	inactive	inactive
CC(C)N(C)C(=O)c1cccc(NC(=O)c2ccncc2)c1OCCCN(C)Cc1ccc(Oc2ccccc2)cc1	inactive	inactive	inactive
C[C@@H]1CN([C@@H](C)CO)C(=O)c2cccc(NS(=O)(=O)c3cn(C)cn3)c2O[C@@H]1CN(C)C(=O)Nc1ccc(F)cc1	inactive	inactive	inactive
C[C@@H]1CCCCO[C@H](CN(C)S(=O)(=O)c2ccc(Cl)cc2)[C@@H](C)CN([C@H](C)CO)C(=O)c2cc(NC(=O)Nc3ccc(C(F)(F)F)cc3)ccc2O1	active	active	inactive
C[C@@H]1CCCCO[C@H](CN(C)Cc2ccc(C(F)(F)F)cc2)[C@@H](C)CN([C@H](C)CO)C(=O)c2cc(N(C)C)ccc2O1	inactive	inactive	inactive
O=C(C[C@H]1CC[C@@H]2[C@H](COC[C@H](O)CN2C(=O)Nc2cc(Cl)cc(Cl)c2)O1)N1CCOCC1	inactive	inactive	inactive
CN([NH2+][O-])C(=O)N[C@@H]1[C@@H](O)[C@H](O)[C@H](CO)O[C@@H]1O	inactive	inactive	inactive
Cc1ccc(S(=O)(=O)N(C)C[C@H]2Oc3c(NC(=O)Nc4ccc(C(F)(F)F)cc4)cccc3C(=O)N([C@@H](C)CO)C[C@@H]2C)cc1	inactive	inactive	inactive
Cn1cc(C[C@@H](N)C(=O)O)c2ccccc21	inactive	inactive	inactive
COc1ccc(S(=O)(=O)N(C)C[C@H]2Oc3c(NS(=O)(=O)c4c(C)noc4C)cccc3C(=O)N([C@H](C)CO)C[C@H]2C)cc1	inactive	inactive	inactive
C[C@H]1CCCCO[C@H](CN(C)S(=O)(=O)c2cccs2)[C@@H](C)CN([C@@H](C)CO)C(=O)c2cc(NC(=O)C3CCCCC3)ccc2O1	inactive	inactive	inactive
NCCNc1ccc([N+](=O)[O-])c(NCCO)c1	inactive	inactive	inactive
COc1ccc(S(=O)(=O)N[C@H]2CC[C@H](CC(=O)N3CCN(c4ccccc4)CC3)O[C@H]2CO)cc1	inactive	inactive	inactive
Cc1noc(C)c1S(=O)(=O)Nc1ccc2c(c1)C(=O)N([C@H](C)CO)C[C@@H](C)[C@H](CN(C)C(=O)Nc1ccc(C(F)(F)F)cc1)OCCCC[C@@H](C)O2	inactive	active	inactive
C[C@H]1CCCCO[C@H](CN(C)C(=O)CCC(F)(F)F)[C@@H](C)CN([C@@H](C)CO)C(=O)c2cc(NS(=O)(=O)c3cccs3)ccc2O1	inactive	inactive	inactive
COc1ccccc1CNC(=O)C[C@H]1C[C@H]2c3cc(NC(=O)C4CCOCC4)ccc3O[C@H]2[C@@H](CO)O1	inactive	inactive	inactive
C[C@H](CO)N1C[C@H](C)[C@@H](CN(C)Cc2ccc(Cl)c(Cl)c2)OCCCC[C@H](C)Oc2ccc(NC(=O)Nc3ccc(C(F)(F)F)cc3)cc2C1=O	active	active	inactive
CO[C@@H]1CN(C)C(=O)c2cc(NS(=O)(=O)CC(F)(F)F)ccc2OC[C@@H](C)N(Cc2nccs2)C[C@@H]1C	inactive	inactive	inactive
O=C1CCCNc2ccc(Cl)cc21	inactive	inactive	inactive
COCCN1CCC(C(=O)NO)(S(=O)(=O)c2ccc(Oc3ccc(OC(F)(F)F)cc3)cc2)CC1	inactive	inactive	inactive
O=C(C[C@@H]1C[C@@H]2c3cc(NC(=O)Cc4ccncc4)ccc3O[C@@H]2[C@H](CO)O1)NCCN1CCCCC1	inactive	inactive	inactive
